Laboratory results from PubChem BioAssay AID1963576 (National Center for Advancing Translational Sciences (NCATS), 2024).
Out of some 46,000 compounds screened, about 60 (0.1%) were called active. Inconclusive results (about 3%) are left out. Calls come from the whole dose curve; as a rule, active = well fitted inhibition curve with a large enough effect; inconclusive = small, poorly fitted or top-dose-only effect; inactive = no such curve, though single readings can be large or run the other way. Some of the results follow.

Assay: Primary qHTS assay for Inhibitors of ovarian cancer metastasis using an organotypic tumor microenvironment (TME) model. Note: nearly all actives have a fitted effect of over 65% in size.
Conditions: SKOV3ip1-GFP adhesion/invasion on 3D omental model, fluorescence; series mostly up to 45.8 µM; activity change, negative = inhibition: at the top concentration
From the text: PI: Ernst Lengyel MD., Ph.D. Department of Obstetrics and Gynecology, Section of Gynecologic Oncology University of Chicago Medicine, Chicago, Illinois. The tumor microenvironment (TME) is a key determinant of metastatic efficiency. We performed a quantitative high-throughput screen (qHTS) of diverse medicinal chemistry tractable scaffolds (44,420 compounds) and pharmacologically active small molecules (386 compounds) using a layered organotypic, robust assay representing the ovarian cancer metastatic TME. This 3D model contains primary human mesothelial cells, fibroblasts, and extracellular matrix, to which fluorescently labeled ovarian cancer cells are added. Initially, 100 compounds inhibiting ovarian cancer adhesion/invasion to the 3D model in a dose-dependent manner were identified. Of those, eight compounds were confirmed active in five high-grade serous ovarian cancer cell lines and were further validated in secondary in vitro and in vivo biological assays. […] Specifically, NCGC00117362 and PP-121 inhibited ovarian cancer adhesion, invasion, and proliferation, whereas milciclib inhibited ovarian cancer invasion and proliferation. […] To evaluate the clinical potential of NCGC00117362, structure - activity relationship studies were performed. […] The three compounds identified have promise as therapeutics for prevention and treatment of ovarian cancer metastasis.
PROTOCOL TABLE (as described by Inglese J, Shamu CE and Guy RK. 2007) SEQUENCE No. (e.g., 1, 2, 3, etc.); […] (e.g., Cells, Incubation, Reagent, etc.); VALUE; DESCRIPTION. 1; Cells; 4 uL; primary human omental fibroblast, black, clear bottom, low base, 1536-well Aurora assay plate. 2; Incubation; 48 hr; 37C. 3; Cells; 3 uL; 1,200 SKOV3ip1-GFP cells. 4; Compounds; 23nL; acoustic dispenser. 5; Incubation; 2 hr; room temperature. 6; Incubation; 16 hr; 37C. 7; Wash; 5 uL; 1x PBS. 8; Fixing; 5 uL; 4% paraformaldehyde (PFA). 9; Incubation; 15 min; room temperature 10; Wash, 5 uL; 1x PBS. 11; Detection; Fluorescence, excitation filter 488 nm, emission filter 509 nm. NOTES (numbers refer to Sequence numbers above) 1. For the 1,536-well format, 40 primary human omental fibroblasts and 400 mesothelial cells were seeded with 0.02 µg fibronectin and 0.02 µg collagen type I in 4 µL of growth media (2.3 mm2; Supplementary Fig. S1A). 2. Assay plates were incubated for 48 hours at 37 C. 3. After incubation, 1,200 SKOV3ip1-GFP were seeded in 3 µL of serum-free media (growth media minus FBS) on top of primary human omental cells. 4. Compounds or controls were added to each well immediately after the addition of the cancer cells. Compounds were screened in four doses (0.36-46 µmol/L), and the plates contained the positive control (Tomatine) in eight doses (0.035-75 µmol/L) and DMSO (equal volume controls) 5 - 6. The plates were incubated at room temperature for 2 hours and then at 37 degrees C for 16 hours. 7 - 10. Following incubation, the media were aspirated and each well washed with PBS (5 µL) and then fixed with 4% paraformaldehyde (PFA; 5 µL). After 15 minutes, the PFA solution was aspirated, PBS (5 µL) was added. 11. The number of GFP-labeled cells analyzed using a fluorescent cytometer TTP LabTech Acumen eX3 using 488 nm excitation filter and 509 nm emission filter. Data was normalized to the DMSO treated for negative and Tomatine treated wells for positive control. REFERENCES: Inglese J, Shamu CE and Guy RK, Reporting data from high throughput screening of small molecule libraries, Nature Chemical Biology, 2007, 3(8): 438-441. doi.org/10.1038/nchembio0807-438. Yasgar A, Shinn P, Jadhav A, Auld DS, Michael S, Zheng W, Austin CP, Inglese J and Simeonov A, Compound Management for Quantitative High-Throughput Screening. J. Assoc. Lab. Auto., 2008, 13: 79-89. doi: 10.1016/j.jala.2007.12.004.

Structure (SMILES)	activity change, negative = inhibition	outcome
N#C/C(=C\c1ccc(Br)cc1)c1nc(-c2cc3cc(Br)ccc3oc2=O)cs1	inactive: 2.82%	–
COC(=O)c1ccc(Cl)cc1NC(=O)N1CCC(CN2CCCC2)CC1	inactive: -8.06%	–
Cc1ccc(C(=O)c2cn(Cc3ccccc3F)c3cc4c(cc3c2=O)OCO4)cc1	inactive: 6.3%	–
Cc1ccc(CCNC(=O)c2cc3sccc3n2Cc2ccc(F)cc2)cc1	–	inactive
COC(=O)c1c(NC(=O)COc2ccccc2Cl)sc2c1CCC(C(C)(C)C)C2 (stereo unspecified)	inactive: 1.25%	–
Cc1cn2c(=O)cc(COC(=O)c3cccc(NC(=O)COc4ccc(Cl)cc4)c3)nc2s1	–	inactive
O=C(Nc1ccc(Br)cc1)c1ccc(Br)c(S(=O)(=O)N2CCCCC2)c1	inactive: -3.73%	–
CCc1ccccc1N(C)S(=O)(=O)c1ccc2[nH]cc(C(=O)NCCOC)c(=O)c2c1	inactive: 20.6%	–
COc1ccc2cc3cc(C(=O)NCCc4ccccc4)sc3nc2c1Cl	–	inactive
CCc1ccc(S(=O)(=O)c2c[nH]c3cc(OC)c(OC)cc3c2=O)cc1	inactive: -6.04%	–
COc1cc(/C=C(\C#N)c2nc3ccc(C)cc3[nH]2)ccc1OC(C)C	inactive: -9.89%	–
CC1(C)O[C@@H]2C[C@H]3[C@@H]4CCC5=CC(=O)C=C[C@]5(C)[C@@H]4[C@@H](O)C[C@]3(C)[C@]2(C(=O)CO)O1	inactive: 1.24%	–
COc1ccc(-c2cc(C(F)(F)F)nc(NCc3ccccc3)n2)cc1	–	inactive
O=C(Cn1c(=O)n(-c2ccc(Cl)cc2)c(=O)c2sc3ccccc3c21)NC1CCCCC1	–	inactive
COc1cccc(NC(=O)C(=O)NCC(c2ccc3c(c2)OCO3)N2CCOCC2)c1 (stereo unspecified)	inactive: -8.82%	–
Cc1ccccc1NC(=O)Cn1c(=O)n(-c2ccc(CC(=O)NCC3CCCO3)cc2)c(=O)c2ccccc21 (stereo unspecified)	inactive: -20.9%	–
CC(C=CC=C(C)C=CC1=C(C)CCCC1(C)C)=CC=CC=C(C)C=CC=C(C)C=CC1=C(C)CCCC1(C)C	inactive: -3.39%	–
Fc1ccc(C(Nc2ccc(Cl)c(C(F)(F)F)c2)c2nnc(-c3ccccc3)o2)cc1 (stereo unspecified)	inactive: -12%	–
CN(Cc1ccccc1)C(C(=O)NC1CCCCC1)c1ccc(Cl)cc1 (stereo unspecified)	inactive: -4.14%	–
COc1cc(OC)c(NC(=O)CCn2cccn2)cc1Cl	inactive: -2.67%	–
Cc1ccc(OCC(=O)N(Cc2ccco2)Cc2ccco2)cc1	inactive: -2.44%	–
COc1cccc(-c2nc(CS(=O)(=O)CC(=O)Nc3cc(F)ccc3F)c(C)o2)c1	inactive: 0.411%	–
Cc1ccc(NC(=O)CSc2nc3ccccc3c3nc(CCn4cncc4C)nn23)c(C)c1	inactive: 0.658%	–

Structure (SMILES)	activity change, negative = inhibition	outcome
COc1cc(-c2noc(-c3ccc(N4CCOCC4)c([N+](=O)[O-])c3)n2)cc(OC)c1OC	inactive: 1.64%	–
Cc1c2cnn(-c3ccccc3)c(=O)c2c(C)n1CC(=O)N1CCN(c2ccc(F)cc2)CC1	inactive: 4.1%	–
CCN(CCCNC(=O)CSc1cc(=O)n(C)c2cc(Cl)ccc12)c1cccc(C)c1	inactive: -2.33%	–
COc1ccc(CCNC(=O)CCn2c(=O)c3ccccc3n(Cc3c(C)cc(C)cc3C)c2=O)cc1OC	–	inactive
COc1ccc2nc3sc(C(=O)N4CCN(c5ccccc5)CC4)cc3cc2c1	inactive: -3.03%	–
Oc1c(C(c2ccc(Br)cc2)N2CCOCC2)sc2nc(-c3ccco3)nn12 (stereo unspecified)	inactive: 3.55%	–
CCc1ccc(C(=O)c2c(N)c(-c3nc(-c4ccc5c(c4)OCO5)cs3)c3ccccn23)cc1	inactive: -5.86%	–
CCS(=O)(=O)c1nc2ccccc2n1CC(=O)Nc1ccccc1C(=O)OC	inactive: 4.16%	–
COc1cccc(CNC(=O)c2ccc3c(c2)N(Cc2ccc(C(F)(F)F)cc2)C(=O)c2ccccc2S3)c1OC	inactive: -1.71%	–
CN1CCN(C(=O)c2cnn(-c3cccc(Cl)c3)c2C2CCN(C(=O)OC(C)(C)C)CC2)CC1	inactive: 21.4%	–
CCCCNc1nc2c(S(=O)(=O)c3ccc(Cl)cc3)nnn2c2ccsc12	inactive: 16.4%	–
Cc1nn(-c2ccccc2)c2c1N(CCCC(=O)NCc1ccc(Cl)cc1)C(=O)CS2	–	inactive
O=C(NCc1ccco1)c1c[nH]c2ccc(S(=O)(=O)Nc3ccc(F)cc3F)cc2c1=O	inactive: -6.29%	–
Cc1csc2nc(CCNS(=O)(=O)c3ccccc3)cn12	–	inactive
CN(C)c1ccc(C(CNC(=O)c2ccccc2F)N2CCc3ccccc32)cc1 (stereo unspecified)	–	inactive
CC(C)CCNC(=O)CN1C(=O)c2cccnc2Oc2ccccc21	inactive: 4.25%	–
N#Cc1ccccc1S(=O)(=O)N1CCCC(c2nc3c(nnn3Cc3cccc(Cl)c3)c(=O)[nH]2)C1 (stereo unspecified)	inactive: 9.87%	–
COC(=O)c1ccc([C@H]2Nc3ccc(S(=O)(=O)Nc4ccc(C)cc4)cc3[C@H]3C=CC[C@H]32)cc1	inactive: 3.51%	–
CC(C)(C)c1ccc(S(=O)(=O)c2cnc(SCC(=O)Nc3ccc(F)c(Cl)c3)[nH]c2=O)cc1	inactive: -7.83%	–
CCOc1ccc(NC(=O)Cc2ccc(NC(=O)N3CCCCc4ccccc43)cc2)cc1	inactive: -0.553%	–
CCOc1ccccc1CNC(=O)CN(c1ccc(C)cc1)S(=O)(=O)N(C)C	inactive: 14.5%	–
Cc1ccc(CN(Cc2ccco2)C(=O)COc2ccc(Cl)cc2Cl)cc1	inactive: 9.02%	–
COc1ccc(-c2nnc(SCC(=O)NCc3ccccc3)nc2-c2ccc(OC)c(OC)c2)cc1OC	inactive: -9.97%	–
